Test results taken from US20260035431A1 (CAVALRY BIOSCIENCES, published 2026).

T1: IGFBP2 (UniProt P18065 37-325, limits assumed)
T1 sequence (looked up): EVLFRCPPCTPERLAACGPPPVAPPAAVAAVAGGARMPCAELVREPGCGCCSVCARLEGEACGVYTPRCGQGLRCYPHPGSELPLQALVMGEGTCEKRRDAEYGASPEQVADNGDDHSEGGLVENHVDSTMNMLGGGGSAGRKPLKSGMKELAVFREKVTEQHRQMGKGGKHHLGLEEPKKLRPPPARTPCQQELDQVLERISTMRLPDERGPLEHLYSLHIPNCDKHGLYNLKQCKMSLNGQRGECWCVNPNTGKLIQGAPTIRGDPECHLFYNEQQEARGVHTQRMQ


Assays:
Test in all cases: cell-based or functional assay
[1] = target: T2, IGF1 receptor (IGF1R) on DU145 cells or immortalized human meibomian gland epithelial cells (human, UniProt P08069 31-1367)
IGFBP3 = IGFBP3 (UniProt P17936)
IGFBP2 = target: T1, IGFBP2
[2] = target: T2, IGF1 receptor (IGF1R) on DU145 cells or …; remark: listed apart in the source

T2 sequence (P08069 31-1367): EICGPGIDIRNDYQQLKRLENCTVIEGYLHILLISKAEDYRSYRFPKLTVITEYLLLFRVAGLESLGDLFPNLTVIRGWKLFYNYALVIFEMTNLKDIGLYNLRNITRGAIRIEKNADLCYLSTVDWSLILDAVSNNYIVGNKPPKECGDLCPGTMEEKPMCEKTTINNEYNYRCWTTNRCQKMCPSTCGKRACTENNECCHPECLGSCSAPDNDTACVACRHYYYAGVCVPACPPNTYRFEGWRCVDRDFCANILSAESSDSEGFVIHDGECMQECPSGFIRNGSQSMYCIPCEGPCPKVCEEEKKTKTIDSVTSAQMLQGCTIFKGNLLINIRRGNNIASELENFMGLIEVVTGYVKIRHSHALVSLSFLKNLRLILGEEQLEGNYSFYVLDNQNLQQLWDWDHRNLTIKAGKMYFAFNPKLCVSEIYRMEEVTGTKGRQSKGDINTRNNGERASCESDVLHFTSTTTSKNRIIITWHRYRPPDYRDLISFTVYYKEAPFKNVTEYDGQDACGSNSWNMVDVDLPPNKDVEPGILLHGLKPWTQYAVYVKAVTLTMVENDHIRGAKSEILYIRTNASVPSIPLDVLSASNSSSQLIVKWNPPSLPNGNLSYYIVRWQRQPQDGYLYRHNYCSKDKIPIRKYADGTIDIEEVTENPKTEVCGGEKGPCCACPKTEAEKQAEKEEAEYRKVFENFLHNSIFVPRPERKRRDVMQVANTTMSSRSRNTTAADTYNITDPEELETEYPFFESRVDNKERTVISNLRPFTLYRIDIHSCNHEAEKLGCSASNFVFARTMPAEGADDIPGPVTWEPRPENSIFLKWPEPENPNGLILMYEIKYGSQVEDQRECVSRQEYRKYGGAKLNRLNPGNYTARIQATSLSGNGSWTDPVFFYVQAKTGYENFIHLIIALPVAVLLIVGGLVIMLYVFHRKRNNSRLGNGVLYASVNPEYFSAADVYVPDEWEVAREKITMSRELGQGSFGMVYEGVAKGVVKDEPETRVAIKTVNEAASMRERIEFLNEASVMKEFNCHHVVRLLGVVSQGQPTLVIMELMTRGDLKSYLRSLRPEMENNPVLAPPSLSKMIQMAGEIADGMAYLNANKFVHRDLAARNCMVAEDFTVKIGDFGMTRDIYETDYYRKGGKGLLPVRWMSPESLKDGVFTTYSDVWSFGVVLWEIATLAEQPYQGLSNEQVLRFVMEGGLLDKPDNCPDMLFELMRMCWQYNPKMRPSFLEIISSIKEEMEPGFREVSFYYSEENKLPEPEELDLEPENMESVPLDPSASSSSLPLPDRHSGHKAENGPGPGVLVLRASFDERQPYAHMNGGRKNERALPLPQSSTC
IGFBP3, sequence (P17936 28-291 limits assumed): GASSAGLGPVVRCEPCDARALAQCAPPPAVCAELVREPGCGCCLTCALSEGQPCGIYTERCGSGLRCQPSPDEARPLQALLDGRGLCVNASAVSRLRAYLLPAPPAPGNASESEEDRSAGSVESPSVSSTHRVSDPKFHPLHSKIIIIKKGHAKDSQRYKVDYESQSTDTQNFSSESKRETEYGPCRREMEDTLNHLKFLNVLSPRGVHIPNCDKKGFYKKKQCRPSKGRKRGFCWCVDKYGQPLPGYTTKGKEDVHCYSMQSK

Binder	% Activity compared to no IGFBP, 4x BP3 (IGFBP3) [%]	% Activity compared to no IGFBP, 4x BP2 (IGFBP2) [%]	EC50, AKT S473 phosphorylation in DU145 cells [1] [nM]	EC50 (nM), P-AKT in DU145 cells [2] [nM]
IGF-1 E3R (ligand) not shown	25	69	8.6	4.9
IGF-1 E3R D20A (ligand) not shown	39	106	–	10.3
IGF-1 E3R L54A (ligand) not shown	55	157	–	26.3

Second part, led by results:

% Activity compared to no IGFBP, 4x BP3 (IGFBP3) [%]	% Activity compared to no IGFBP, 4x BP2 (IGFBP2) [%]	Binder	EC50, AKT S473 phosphorylation in DU145 cells [1] [nM]	EC50 (nM), P-AKT in DU145 cells [2] [nM]
10	130	IGF-1 F49L (ligand) not shown	–	7.5
53	107	IGF-1 E3R D12A (ligand) not shown	–	24.5
154	166	IGF-1 E3R F49L (ligand) not shown	15.8	5.4
